# Assay results from the supplement of paper PMC10037445.
# The full ranking holds about 2,900 compounds; the median of “IRF Lucia reporter activity, fold change vs agonist alone” is about 0.9, and the highest 2% start at about 2.8. The list shows a part of the results.
# Key:
# [1] = tested on: RAW-Dual; assay: IRF Lucia reporter activity, fold change vs agonist alone; cytotoxicity flag (confluency mask): not cytotoxic; higher = enhanced IRF activity
# Method in brief: (§1)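 Library stock was pin-tooled at 50 nL into 384-well plates of RAW-Dual macrophages (50,000 cells/well, DMEM), followed 1 h later by a PRR agonist, and the cells were kept at 37 °C, 5% CO2. Supernatant collected after 20 hours was read for IRF by QuantiLuc luminescence and for NF-κB by QuantiBlue absorbance at 620 nm. Reporter activity is fold change over agonist-alone wells, and a well counted as cytotoxic when its IncuCyte confluency was below 70% of agonist controls in both mask sets.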
# [2] = tested on: RAW-Dual; assay: IRF Lucia reporter activity, fold change vs agonist alone; higher = enhanced IRF activity; conditions: library stock concentration (final ~1000-fold dilution): 10 mM; cytotoxicity flag (confluency mask): not cytotoxic; agonist: MPLA (TLR4) […]
# Method in brief: as §1
# [3] = tested on: RAW-Dual; assay: IRF Lucia reporter activity, fold change vs agonist alone; cytotoxicity flag (confluency mask): cytotoxic (confluency <70% of control); higher = enhanced IRF activity
# Method in brief: as §1
# [4] = agonist: 3'3'-cGAMP (STING) 10 ug/mL
compound,measurement,setting,value
CC(C)(C(=O)O)c1ccc(C(O)CCCN2CCC(C(O)(c3ccccc3)c3ccccc3)CC2)cc1.Cl (centres undefined) (library stock concentration (final ~1000-fold dilution): 10 mM),IRF Lucia reporter activity,[1]; [4],1.07
same,IRF Lucia reporter activity,[1]; agonist: LPS (TLR4) 0.1 ug/mL,0.969
Cc1cn[nH]c1 (library stock concentration (final ~1000-fold dilution): 10 mM),IRF Lucia reporter activity,[1]; [4],1.03
same,IRF Lucia reporter activity,[1]; agonist: LPS (TLR4) 0.1 ug/mL,1.02
Cc1cn[nH]c1,IRF Lucia reporter activity,[2],0.974
O=C(C=Cn1cnc(-c2cc(C(F)(F)F)cc(C(F)(F)F)c2)n1)NNc1ccccn1 (library stock concentration (final ~1000-fold dilution): 10 mM),IRF Lucia reporter activity,[1]; [4],0.0591
same,IRF Lucia reporter activity,[1]; agonist: LPS (TLR4) 0.1 ug/mL,0.423
O=C(CCNC(=O)c1ccc(OC(F)(F)F)cc1)NC1CCCc2ccccc21 (centres undefined) (library stock concentration (final ~1000-fold dilution): 10 mM),IRF Lucia reporter activity,[1]; [4],1.8
same,IRF Lucia reporter activity,[1]; agonist: LPS (TLR4) 0.1 ug/mL,1.91
O=C(Nc1ccccc1Br)NC1CCN(c2ccc(C(F)(F)F)cn2)C1 (centres undefined),IRF Lucia reporter activity,[2],1.38
O=C(Nc1ccccc1Br)NC1CCN(c2ccc(C(F)(F)F)cn2)C1 (centres undefined) (library stock concentration (final ~1000-fold dilution): 10 mM),IRF Lucia reporter activity,[1]; [4],0.938
same,IRF Lucia reporter activity,[1]; agonist: LPS (TLR4) 0.1 ug/mL,0.88
CC(=O)Cc1cc(=O)c2c(C)cc(O)c(C3OC(CO)C(O)C(O)C3O)c2o1 (centres undefined) (library stock concentration (final ~1000-fold dilution): 10 mM),IRF Lucia reporter activity,[1]; [4],1
same,IRF Lucia reporter activity,[1]; agonist: LPS (TLR4) 0.1 ug/mL,0.692
COc1cc2ncnc(Sc3nnc(C)s3)c2cc1OC (library stock concentration (final ~1000-fold dilution): 10 mM),IRF Lucia reporter activity,[1]; [4],0.126
same,IRF Lucia reporter activity,[1]; agonist: LPS (TLR4) 0.1 ug/mL,0.0246
COc1cc2ncnc(Sc3nnc(C)s3)c2cc1OC,IRF Lucia reporter activity,[2],0.0442
CCC1(c2cnc[nH]2)Cc2ccccc2C1,IRF Lucia reporter activity,[2],0.963
CCC1(c2cnc[nH]2)Cc2ccccc2C1 (library stock concentration (final ~1000-fold dilution): 10 mM),IRF Lucia reporter activity,[1]; [4],1.09
same,IRF Lucia reporter activity,[1]; agonist: LPS (TLR4) 0.1 ug/mL,1.05
CC(N)c1ccc(C(=O)Nc2ccnc3[nH]ccc23)cc1.Cl.Cl (centres undefined) (library stock concentration (final ~1000-fold dilution): 10 mM),IRF Lucia reporter activity,[3]; [4],0.0164
same,IRF Lucia reporter activity,[3]; agonist: LPS (TLR4) 0.1 ug/mL,0.0342
COc1c(C)c(C(=O)c2ccc(N)c(C(=O)O)c2)n2ccccc12 (library stock concentration (final ~1000-fold dilution): 10 mM),IRF Lucia reporter activity,[1]; [4],1.1
same,IRF Lucia reporter activity,[1]; agonist: LPS (TLR4) 0.1 ug/mL,0.916
COc1c(C)c(C(=O)c2ccc(N)c(C(=O)O)c2)n2ccccc12,IRF Lucia reporter activity,[2],1.04
Cc1c(C(=O)Nc2ccc(Oc3ccnc4[nH]cc(-c5ccccc5)c34)c(F)c2)c(=O)n(-c2ccc(F)cc2)n1C (library stock concentration (final ~1000-fold dilution): 10 mM),IRF Lucia reporter activity,[1]; [4],0.0577
same,IRF Lucia reporter activity,[1]; agonist: LPS (TLR4) 0.1 ug/mL,0.255
O=C1O[C@H]([C@@H](O)CO)C(O)=C1OP(=O)(O)O (library stock concentration (final ~1000-fold dilution): 10 mM water),IRF Lucia reporter activity,[1]; [4],1.27
same,IRF Lucia reporter activity,[1]; agonist: LPS (TLR4) 0.1 ug/mL,0.819
